# Hit rate of the full screen: of about 310,000 compounds, about 14,000 (4.5%) showed an effect of 50% or more. The effect is printed as a negative number. This is one part of the list.
# Target: human ether-à-go-go-related gene (hERG) potassium channel (human, UniProt Q12809)
# Test: primary screen, population patch clamp on CHO cells stably expressing hERG
# 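Further: peak tail current of the secondary pulse compared with the same well before compound.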
# Chain of human ether-à-go-go-related gene (hERG) potassium channel (Q12809 whole entry, looked up): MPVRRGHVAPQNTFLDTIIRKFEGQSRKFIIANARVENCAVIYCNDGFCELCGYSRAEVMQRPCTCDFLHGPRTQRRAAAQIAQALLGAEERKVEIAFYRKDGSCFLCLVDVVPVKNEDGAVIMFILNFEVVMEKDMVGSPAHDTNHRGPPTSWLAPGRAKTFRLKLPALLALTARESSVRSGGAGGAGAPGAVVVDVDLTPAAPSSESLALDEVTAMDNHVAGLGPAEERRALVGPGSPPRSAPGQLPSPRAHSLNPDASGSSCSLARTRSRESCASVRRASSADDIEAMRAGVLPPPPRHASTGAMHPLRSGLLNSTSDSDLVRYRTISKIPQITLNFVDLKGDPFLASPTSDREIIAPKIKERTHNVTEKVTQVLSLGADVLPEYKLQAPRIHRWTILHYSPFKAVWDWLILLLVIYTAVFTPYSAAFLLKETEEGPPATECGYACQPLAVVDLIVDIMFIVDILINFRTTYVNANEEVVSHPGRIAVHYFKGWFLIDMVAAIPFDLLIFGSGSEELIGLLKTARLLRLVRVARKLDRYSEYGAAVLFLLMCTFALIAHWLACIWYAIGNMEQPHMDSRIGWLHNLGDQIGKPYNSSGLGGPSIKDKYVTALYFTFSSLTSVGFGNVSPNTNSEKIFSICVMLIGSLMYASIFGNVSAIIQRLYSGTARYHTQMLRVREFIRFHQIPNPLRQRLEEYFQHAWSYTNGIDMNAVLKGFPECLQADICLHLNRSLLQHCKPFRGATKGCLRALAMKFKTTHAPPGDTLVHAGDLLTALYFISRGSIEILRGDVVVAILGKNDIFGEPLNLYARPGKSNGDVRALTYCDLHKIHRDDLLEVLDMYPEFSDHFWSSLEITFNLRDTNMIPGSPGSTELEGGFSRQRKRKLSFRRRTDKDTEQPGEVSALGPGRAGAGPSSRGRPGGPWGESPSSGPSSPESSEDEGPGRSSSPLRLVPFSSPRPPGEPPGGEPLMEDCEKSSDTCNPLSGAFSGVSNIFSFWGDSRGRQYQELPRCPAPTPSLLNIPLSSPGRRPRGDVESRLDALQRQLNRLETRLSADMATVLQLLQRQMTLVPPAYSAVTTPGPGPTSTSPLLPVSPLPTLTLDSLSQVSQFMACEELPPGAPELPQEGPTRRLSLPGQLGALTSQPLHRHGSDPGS
row,Structure (SMILES),"hERG current change (%, negative = inhibition) at 10uM"
1,CC(C)Cc1nccs1,16.3%
2,COc1ccccc1C(=O)N1C(CC(=O)Nc2ccccc2C)C(=O)NC2CCCCC21 (stereo not shown),7.1%
3,Cc1nc2nc(SCC(=O)NCCN3CCOCC3)nn2c(C)c1Cc1ccccc1,6.64%
4,CCC(CC)C(=O)c1c[nH]c(C(=O)NCC2CCCO2)c1 (stereo not shown),4.28%
5,CC(C)c1cccc(OCCN2CCCC2)c1,5.18%
6,O=C(COc1ccccc1F)Nc1cc(S(=O)(=O)N2CCOCC2)ccc1N1CCOCC1,-13.7%
7,COc1ccc(N2CCN(C(=O)COC(=O)c3ccc(CSC)o3)CC2)cc1,-24.6%
8,CCCCNS(=O)(=O)c1ccc(NC(=O)C2c3ccccc3Oc3ccccc32)cc1,-2.69%
9,CC(=O)c1cc(C)ccc1OC(=O)CN1C(=O)c2ccccc2C1=O,22.8%
10,O=C(O)C(=O)O.O=C(c1ccccc1F)N1CCN(C2CCC(c3ccccc3)CC2)CC1 (stereo not shown),-60.5%
11,CNC(=O)COc1coc(CN2CCN(Cc3ccccc3)CC2)cc1=O,1.83%
12,CC(C)(Oc1ccc(Cl)cc1)C(=O)NC1CCCCC1,0.43%
13,Cn1c(O)c(C(=Nc2ccc(F)cc2)c2ccccc2)c(=O)n(C)c1=O,12.2%
14,Cl.Fc1ccccc1N1CCN(C(c2cccs2)c2nnnn2CCc2ccccc2)CC1 (stereo not shown),5.92%
15,Cc1nn(C(C)(C)C)c(NC(=O)c2ccc(Cl)cc2)c1Br,11.6%
16,Cc1nccn1CC(=O)N/N=C/c1cccc(O)c1,18.8%
17,Cc1ccc(NC(=O)c2ccc(Cl)c(S(=O)(=O)NCC3CCCO3)c2)c(O)c1 (stereo not shown),10.6%
18,O=C(c1ccco1)N1CCN(C(=O)c2ccccc2[N+](=O)[O-])CC1,22.4%
19,CS(=O)(=O)c1ccc(C(=O)Nc2cc(S(C)(=O)=O)ccc2Cl)cc1,-6.33%
20,Cc1cccc(Cn2nnc3c2C(=O)c2ccccc2C3=O)c1,19.8%
21,Cc1cccc(OC(=O)c2ccncc2)c1C,14.5%
22,C=CCOC(=O)C1=C(C)NC(SCC(=O)NC(=O)OCC)=C(C#N)C1c1cccnc1 (stereo not shown),-32.1%

row,Structure (SMILES),"hERG current change (%, negative = inhibition) at 10uM"
1,CC1(C)Cc2c(sc3nc(N/N=C/c4ccccc4)[nH]c(=O)c23)CO1,-0.86%
2,CCn1c2ccccc2c2nnc(SCC(=O)Nc3ccc4c(c3)OCO4)nc21,7.67%
3,O=C(/C=C/c1ccccc1)NCCSCc1ccccc1,-11.9%
4,Cc1ccc(Nc2nc(N)c([N+](=O)[O-])c(N3CCOCC3)n2)cc1,2.23%
5,COC(=O)CSC(=S)N1CCCC(C)C1 (stereo not shown),7.86%
6,COc1ccc(OC)c(NC(=O)Nc2cccc3ccccc23)c1,-0.98%
7,CCOC(=O)CC1C(=O)NCCN1C(=O)c1ccc(Cl)cc1 (stereo not shown),12.9%
8,N#Cc1c(NC(=O)CSc2nnc(-c3ccco3)n2-c2ccccc2)sc2c1CCC2,-2.82%
9,Clc1ccc(COc2ccccn2)c(Cl)c1,3.32%
10,COc1ccc(CN2C(=O)c3cccnc3C2=O)cc1S(=O)(=O)NCc1ccc(C)cc1,1.73%
11,COCCSc1nnc(NC(=O)Cc2ccc(OC)cc2)s1,11.5%
12,Cc1ccc2oc(=O)c3cc(C(=O)N4CCN(C(=O)c5ccco5)CC4)sc3c2c1,-21.5%
13,C[C@H](NC(=O)c1nc[nH]c1C(=O)N1CCN(C(=O)OC(C)(C)C)CC1)C(=O)OCc1ccccc1,-5.68%
14,CCN1CCN(CCCNC(=O)CCCn2nc(C)c3sc4ccccc4c3c2=O)CC1,3.8%
15,Cc1ccc(S(=O)(=O)N(CC(=O)Nc2cccnc2)c2ccc(Br)cc2)cc1,-50.3%
16,COC(=O)CNC(=O)COC(=O)c1ccc(OC)c([N+](=O)[O-])c1,-19.5%
17,Cc1cc(C)nc(SCc2nnc(SCC#N)n2-c2cccc(Cl)c2)n1,-17.6%
18,O=C(COC(=O)c1cccc(Br)c1)Nc1cccc2c1C(=O)c1ccccc1C2=O,4.56%
19,COc1ccccc1-n1c(SCC(=O)NC2CCCC2)nc2cccnc21,2.59%
20,COc1ccc(-c2noc(C(C)n3nc(C)c([N+](=O)[O-])c3C)n2)cc1OC (stereo not shown),-15.9%
21,COC(=O)Nc1nnc(/C=C/c2ccc(OC)cc2)s1,-9.29%
22,CC(C)c1ccc(O)c(NC(=O)c2cncc(Br)c2)c1,1.03%

row,Structure (SMILES),"hERG current change (%, negative = inhibition) at 10uM"
1,Cc1ccc(NC(=O)CN(C)C(=O)c2ccc(NS(=O)(=O)c3ccc4[nH]c(=O)[nH]c4c3)cc2)cc1,-17%
2,CCc1nc(C)cn1S(=O)(=O)c1cc(Br)c(C)cc1OC,-4.01%
3,O=C(NCCS(=O)(=O)NC1CCCC1)c1ccc(F)cc1,9.48%
4,CC(=O)Oc1ccc2ccccc2c1C(NC(=O)C(C)C)c1cccc([N+](=O)[O-])c1 (stereo not shown),-24.7%
5,O=C(OCc1cn(-c2ccc(Cl)c(Cl)c2)nn1)c1ccccc1Cl,-5.05%
6,CC(C)OC(=O)NC(c1ccccc1)C(Cl)(Cl)Cl (stereo not shown),-23.5%
7,CN(C(=O)c1ccc(=O)n(Cc2ccc(Cl)cc2)c1)c1ccccc1,1.11%
8,Cc1nc2c(O)cccc2cc1CO,8.32%
9,COc1ccc(CN2CCNC(=O)C2CC(=O)NCCSc2nccn2C)cc1OC (stereo not shown),14.5%
10,Cc1cc(C)n(C(=O)CCCn2nc(C)c([N+](=O)[O-])c2C)n1,-20.4%
11,Cc1cc(-c2cc(C(=O)NC3CCCC3)on2)nc(NC2CCCC2)n1,4.57%
12,CCOc1ccc(C(=O)NCC(c2ccco2)N2CCOCC2)cc1 (stereo not shown),6.48%
13,COC(=O)C1=C(C)N(CC(C)C)C(=O)C1,6.07%
14,CCN(CC(=O)Nc1ccc(NC(C)=O)cc1)C(=O)COc1ccc2ccccc2c1,-10.1%
15,O=C(O)CSc1ccnc2cc(Cl)ccc12,16.2%
16,CCC(=O)Nc1cc(ON=C(C)C)cc([N+](=O)[O-])c1,9.92%
17,CC(C)CCN1C(=O)CCC1(C)C(=O)NC1CCCCCCC1 (stereo not shown),10.8%
18,CCn1c2ccccc2c2cc(NC(=O)CSc3nnnn3-c3ccccc3)ccc21,1.69%
19,CC(=O)Nc1ccc(NC(=O)CSc2nnc(-c3cccnc3)o2)cc1,7.42%
20,CN1C(=O)c2ccccc2N(C)C1c1cccs1 (stereo not shown),-6.57%
21,Cc1ccc(S(=O)(=O)N(C)C)cc1NC(=O)c1cncc(Br)c1,-6.57%
22,O=C1CN(C(=O)CSc2nc(-c3ccc(Cl)cc3)cs2)c2ccccc2N1,13.9%

row,Structure (SMILES),"hERG current change (%, negative = inhibition) at 10uM"
1,COc1ccc(-c2cc(=O)oc3cc(OC(C)C(=O)NCCCn4ccnc4)ccc23)cc1 (stereo not shown),-50.8%
2,COc1ccc(-n2c(SCC(N)=O)nnc2-c2ccco2)cc1,15.5%
3,COc1ccc2c(c1)c(=O)c(Br)c(C)n2Cc1ccccc1,-9.03%
4,COc1ccc(-n2nc([N+](=O)[O-])c(=NCCc3ccccc3)n2O)cc1,-6.24%
5,CCN(CC)CCN1C(=O)C2C(C(=O)Nc3cc(C)cc(C)c3)C3C=CC2(O3)C1C(=O)NC1CCCCC1 (stereo not shown),4.15%
6,CC(NC(=O)CSc1nc2ccccc2n1CCC#N)c1ccc(F)cc1 (stereo not shown),-5.77%
7,Cc1[nH]c2ccccc2c1C1=CCNCC1,2.58%
8,CCOC(=O)C1=C(C)Nc2ccccc2N=C1NC(=O)C(c1ccccc1)c1ccccc1,4.69%
9,COc1ccc(C(=O)C2CCCN(C(=O)/C=C/c3cnc[nH]3)C2)c(C)c1 (stereo not shown),8%
10,CCOc1cc(CNCCc2c[nH]c3ccccc23)cc(Cl)c1OCC,-14%
11,Cc1csc(SCC(=O)N2CCCC2)n1,8.96%
12,CCCCC[C@H](O)/C=C/[C@@H]1[C@@H](C/C=C\CCCC(=O)O)[C@H]2CO[C@@H]1C2,10.4%
13,CC(C)(C)OC(=O)N1CCC(c2c(C(=O)O)cnn2-c2ccccc2Cl)CC1,-5.43%
14,COc1cc(OC)c2c(-c3ccccc3)cc(=O)oc2c1C(CCN1CCCC(C)C1)c1ccc2c(c1)OCO2 (stereo not shown),-48.8%
15,Cc1ccc(S(=O)(=O)N(C)Cc2ccc(-c3nnc4n3CCC4)cc2)cc1,-20.4%
16,CC(C#Cc1ccc2c(c1)COc1c3ccccc3nn1-2)OC(C)(C)C (stereo not shown),15.8%
17,COCc1nnc(NC(=O)CCN2C(=O)c3ccccc3C2=O)s1,6.9%
18,O=C(O)c1ccc2c(c1Nc1ccccc1)C(=O)c1ccccc1C2=O,24.9%
19,CC(=O)c1cc(CCC(=O)NC2CCCCCC2)oc1C,8.28%
20,COc1ccc(OC)c(N(CC(=O)NCc2ccccn2)S(C)(=O)=O)c1,-6.87%
21,Cl.OC(COCc1ccc(Cl)cc1)CN1CCc2ccccc2C1 (stereo not shown),-70.4%
22,COc1ccc(-n2cc(CNCCc3ncc(C)[nH]3)c(-c3ccccc3Cl)n2)cc1,-63.6%

# Reference: PMC4336329 (PLoS ONE, 2015)
